Experimental findings from PMC12136788 are described below.

The list shows a part of the results.

Sequences and labels used below:
T1: UNK ZnF1-3 (human, UniProt Q9C0B0 31-174)
T1 sequence: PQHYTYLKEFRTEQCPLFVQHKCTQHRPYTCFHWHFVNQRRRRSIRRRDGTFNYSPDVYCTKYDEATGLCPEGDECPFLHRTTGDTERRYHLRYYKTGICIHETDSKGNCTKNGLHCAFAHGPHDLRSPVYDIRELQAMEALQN

B1: chr16:20405944:20405945:-_ENSMUSG00000022822_ENSMUST00000134962|mus_hu|FALSE|FALSE (ssRNA)
RNA: GGGAGUUCUACAGUCCGACGAUCAUGCAUGGAGGCAUCAAGAGAGAGGCCCUCGGCUCGGGCUGCUGUUUCCAAGGCAUCUUGGCAUUCCAACGGUCGAGUUCUCCUGAACUUGGAAUCUUCACGGUCUCUGUGCGUCCCAGACAACAGAGGAUUGAGCAUCA
B2: chr1:36394379:36394380:+_ENSG00000092847_ENST00000373204|hu_hu|motif|central (ssRNA)
RNA: GGGAGUUCUACAGUCCGACGAUCCAGGAGCCAUCAAAUACCCAGUGCAAAAUUUCCUAAAAUAUGAUACAAAAGUAUAAACGGGAACAGAAAAAAGCAACAAACGGAGCUUUAAUAAAUUCACAAAAUUUUAAACUUUUGCUCCAACAGAGGAUUGAGCAUCA
B3: chr21:27062186:27062187:+_ENSG00000154721_ENST00000480456|hu_hu|motif|central (ssRNA)
RNA: GGGAGUUCUACAGUCCGACGAUCACCCAGUUUCUUCCACUCUAAUCUGGAGGAAACAGUCUUCUUUGGGGUUUUGCAGGCGGAAAUAGCCUCUUGGUACUCUACUGCUGUGACUACUUGUUGGUCUUUUGGGGCAGAAAACCCCAACAGAGGAUUGAGCAUCA
B4: chrX:100910778:100910779:-_ENSG00000184867_ENST00000356824|hu_mus|FALSE|FALSE (ssRNA)
RNA: GGGAGUUCUACAGUCCGACGAUCCACACACACCCCAGAUGUAGUGCAUAAGUAAAACAGGGACCCCUUGUUGAAUUCCCUGUAGUUGAACACUUCUGCUCUGAGGUUGUCGAAGAUAAUCUCAAAUAGAGUAAGGGCAUUAAUCAACAGAGGAUUGAGCAUCA
B5: 26795299_26795419_4046_CDS_ENSMUSG00000024921_ENSMUST00000025862|mouse|control|control (ssRNA)
RNA: GGGAGUUCUACAGUCCGACGAUCGGUGAGGGCAUCACUGUAGUCCACAUCCCGGCGCUGGCGAGAGCCCCUCCCAAAUAUCUUCUCCUCCUCUUCUUCACAGGUGAGCCUUUCCACUUCGGCGUCAUCCUUGAUAAUCCAGGACAACAGAGGAUUGAGCAUCA
B6: chr4:73765705:73765706:+_ENSMUSG00000049122_ENSMUST00000084474|mus_hu|motif|central (ssRNA)
RNA: GGGAGUUCUACAGUCCGACGAUCGUAUCUUGUGAGCUCUUCUUUAAUCUUCAAGGGUUCAUGUGGGUAGAAUUUCACUCGGAAGCACAUGGUGUAUGGUGGAUGAGUUUUCAUUUGCUUGAAGAUGGACUUGUUAGGUUCAAGCAACAGAGGAUUGAGCAUCA
B7: chr3:176767854:176767855:-_ENSG00000177565_ENST00000430069|hu_hu|hu_hu_hu_mus_False|28_38 (ssRNA)
RNA: GGGAGUUCUACAGUCCGACGAUCGACAUCCUUGUUACUGGGCACGUCCUGCCCUCCUUCCCGUAUGCAGUGUCUAAGCACGAGCUGCGUAGGGCCACUGGUGCUGUUCUCACUAAGGUUCCAGAUUCUUGCCGUGGAGUCUCCCAACAGAGGAUUGAGCAUCA
B8: 129107762_129114878_705_CDS_ENSMUSG00000034951_ENSMUST00000057576|mouse|control|control (ssRNA)
RNA: GGGAGUUCUACAGUCCGACGAUCUUCAGUAAACACCUUCACAAACACUUUAGACUGAUCCACAGACUGAGAGGUGAACGAUGCUACGAUCUGGGGGCUGGCCAGGGCCUCCAGUCUGUUCUUCAGAGCCUCCAGGUGCACACACAACAGAGGAUUGAGCAUCA
B9: chr5:37680062:37680063:+_ENSMUSG00000029121_ENSMUST00000031004|mus_hu|mus_mus_mus_hu_False|38_88 (ssRNA)
RNA: GGGAGUUCUACAGUCCGACGAUCUUUGGGUGUAGCUGGUACCUCGUACACAGGCCCGUCAUACAUGCCCCUGGAAACCCCUUGCAAUCCAAAAACCUUGCUUCUGAUUUUGACGCGCUGGUACAGGUGCUCCGGGAACGCCUUCAACAGAGGAUUGAGCAUCA
B10: chr5:132424114:132424115:+_ENSG00000170606_ENST00000304858|hu_mus|FALSE|FALSE (ssRNA)
RNA: GGGAGUUCUACAGUCCGACGAUCACCAAAAAACUUGCUGAUCUUCUCUUUCACUGCAGGGAUUCGUGUGGCACCACCAACUAUCUCCACUGCAUAAAUAUCUUCUUUCUUUAACUUGGAUUGCUCCAAGACGCUUCGAAGUGGCAACAGAGGAUUGAGCAUCA
B11: chr11:97543600:97543601:+_ENSMUSG00000038437_ENSMUST00000044730|mus_hu|FALSE|FALSE (ssRNA)
RNA: GGGAGUUCUACAGUCCGACGAUCCUGCCCUUGGCUGCCCUGGGUCCAGGAGGAGAGAGACAGGCAGACAGACACACACACACACACACACACACACACACAUGCACGCACACACACACUCACACACUGAGACGGGCAGCUCCACAACAGAGGAUUGAGCAUCA
B12: chr12:4461469:4461470:+_ENSG00000078237_ENST00000179259|hu_hu|motif|central (ssRNA)
RNA: GGGAGUUCUACAGUCCGACGAUCCUGUUCUUUUUGAUCCGCUUCUUUCAGGAUUAGUUGACAAAGAAAUUCAAAAAAGUCGGUUCCACGCAUUUUCACCUGGUCCAGCGUCUCUCCUCCGGGCGGUGUAAACACAGGGCACUCCAACAGAGGAUUGAGCAUCA
B13: chr16:78329203:78329204:+_ENSMUSG00000022865_ENSMUST00000023572|mus_mus|FALSE|FALSE (ssRNA)
RNA: GGGAGUUCUACAGUCCGACGAUCUACCCGUCCUUUCAGAUCCGGAUAGUAGUUAUCAUAAAUUUUGUCUCCAGAAUACAAAAUGAUCACUUGAUCCACUAUCUGGUUAUCAGACGGGGAUAUCAGCCAUUCAAUGUCCAGUGGCAACAGAGGAUUGAGCAUCA
B14: 138068168_138068741_4728_CDS_ENSMUSG00000041642_ENSMUST00000075164|mouse|control|control (ssRNA)
RNA: GGGAGUUCUACAGUCCGACGAUCGAACAUCUUCACAUAGUGGUCCUUGGAGCCCGUCACCACGAGGUCAUGCUGGUUUGAAGUCUGGGUGACUGUUAGGCACAUCACUGGGCCAAUGUGGCCAGUCAGUUUGCCAAUGGGCUGCAACAGAGGAUUGAGCAUCA

The assay has as its target T1, UNK ZnF1-3. Description: nsRBNS (natural sequence RNA bind-n-seq); RBNS binding buffer (assumed for nsRBNS): 25 mM Tris pH 7.5, 150 mM KCl, 3 mM MgCl2, 0.01% Triton X-100, 500 ug/ml BSA, 20 U/ml SUPERase-In, 4 C; UNK is unkempt and MSI1 is Musashi-1; names of the RNAs are library labels; protein concentration not given here; high values mean tight binding.
Regarding B1, the binding signal was 1.16 enrichment R.
Under B2 stands 3.04 enrichment R.
Under B3 stands 0.579 enrichment R.
In the case of B4, the binding signal is 0.567 enrichment R.
Under B5 stands 1.36 enrichment R; under B6, 0.719 enrichment R; under B7, 0.546 enrichment R.
Under B8 stands 1.08 enrichment R.
For B9 the value was 0.714 enrichment R; for B10, 0.946 enrichment R; for B11, 1.64 enrichment R.
The molecule B12 displayed a binding signal of 0.794 enrichment R.
Under B13 stands 0.771 enrichment R; under B14, 0.796 enrichment R.
